Assay results from patent US11135177B2, “Methods of making and using compositions comprising flavonoids” (VIZURI HEALTH SCIENCES CONSUMER HEALTHCARE, INC., priority 2009, dated 2021).

Tests used:
[1] = Scanning electron microscopy morphology; assay type: physicochemical; conditions: SEM
[2] = Solubility in molten vitamins B5 / B3
[3] = Qualitative assessment of hydrated flavonoid suspension in Aqueous Phase Lotion diluted with water; assay type: physicochemical; conditions: hydrated flavonoid 1.25% in APL; 5 ml of lotion in 150 ml of water
[4] = Particle size distribution (static light scattering / Malvern Mastersizer); assay type: physicochemical; conditions: unprocessed powder
[5] = Apigenin solubility in alkaline solutions and alkaline glycerin; conditions: sodium hydroxide solution, aqueous buffer, thermodynamic from solid, Apigenin Solubility (mg/ml)
[6] = Thermal stability of PS80 heated with apigenin (mass spectroscopy); assay type: physicochemical; conditions: heated to ~250-300° C., compared with unheated control

In the case of `O=c1cc(-c2ccc(O)cc2)oc2cc(O)cc(O)c12` [hydrated apigenin], the aspect ratios [1] is reported as “greater than 20”, the fiber diameters [1] is reported as 30-500 nm and the “solubility in molten niacinamide (Vitamin B3)” value [2] is reported as “readily soluble”.

In the case of `O=c1cc(-c2ccc(O)c(O)c2)oc2cc(O)cc(O)c12` [luteolin, 3′,4′,5,7-tetrahydroxyflavone], the “Particulate Settling After 3 hours” value [3] is reported as “None/”.

In the case of `O=c1cc(-c2ccc(O)cc2)oc2cc(O)cc(O)c12` [apigenin, 4′,5,7,-trihydroxyflavone], the “particle size of the very large distribution” value [4] is reported as “around 40 microns”, the “Evidence of Nano Particles” value [3] is reported as “Yes” and the “Particulate Settling After 3 hours” value [3] is reported as “None”. For the same compound, the “solubility in molten D,L Panthenol” value ([2]; molten D,L Panthenol, approximately 65° C.) was “readily dissolved”, the “solubility in molten niacinamide (Vitamin B3)” value [2] was “readily soluble” and the solubility ([5]; NaOH 0.75 M) was > 150 mg/mL. The solubility ([5]; NaOH 1.015 M) was > 200 mg/mL and the solubility ([5]; NaOH 2.0 M) was > 300 mg/mL.

With “polyoxyethylene (20) sorbitan monooleate [PS 80]” the “degradation on heating with apigenin” value [6] was “did not significantly degrade”.
